± gives the standard deviation. This is a selection; strong and weak results do not stand in their true shares.
Tested on: MIWI (PIWIL1) piRISC loaded with piRNA #1 (30 nt)
Assay: pre-steady-state target cleavage rate (min^-1); MIWI and MILI are mouse PIWI proteins and EfPiwi is from a freshwater sponge; tags in brackets are library labels; higher = faster piRNA-guided slicing of the target
Settings: guide: piRNA #1 5'p-UGAGGUAGUAGGUUGUAUAGUAUCCAGAGG; auxiliary factor: 500 nM mouse GTSF1
In short: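 For Cleave-'n-Seq, a transcribed, DNA-blocked target RNA library […] met 1 nM active affinity-purified piRISC with one synthetic guide at 33 °C for 0–8 or 0–960 min in HEPES–potassium acetate buffer, with or without 500 nM GTSF1 partner protein. Uncleaved targets were sequenced and normalised to depth and weakly complementary targets, with three trials pooled and k3 capped at 0.0001 min^-1. A burst-and-steady-state fit supplied the pre-steady-state cleavage rate.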
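Note: 1 nM active piRISC with 0.1 nM target library at 33 °C single turnover.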

Sequence | pre-steady-state target cleavage rate
GGAGUGGAUACUAUUGAACCUACUACCUCA | 0.298 ± 0.028
GGAGACCUAUGAUAUGUUGGUUGAACCUCA | < 0.0001
GGAGACCUAACUAUAGAACCUUCUACCUCA | 0.114 ± 0.014
GGAGACCUAACCUAUACAACCUACUACCUCA | 0.322 ± 0.13
GGAGACCAUACUAUACAGCCUACUACCUCA | 0.595 ± 0.03
GGAGACCUAUGUACACAACCUACUACCUCA | 0.0163 ± 0.0046
CCUCUGGAUAUCUAUACAACCUACUACCUCA | 0.824 ± 0.05
CCUCUCGAAACUAUACAACCUACUACCUCA | 1.93 ± 0.1
GCUCUGGAUACUAUACAACCAACUACCUCA | 0.171 ± 0.018
GGAGAGGAUACUAUACAACCAACAACCUCA | 0.045 ± 0.0063
GGAGUGGAUUCAAUACAACCUACUACCUCA | 1.02 ± 0.071
GGUCUGGAUACUUUACAACCUACUAGCUCA | 0.00909 ± 0.0025
GGACAGGAUACUAUACAACCUACUAGCUCA | 0.086 ± 0.014
GGAGAGGAUACUAUACAAGCAACUACCUCA | 0.0316 ± 0.0065
GCUCUGGAUACUAUACUACCUACUUCCUCA | 0.576 ± 0.063
GGAGACCUAACUAAUCAACCUACUACCUCA | 0.0103 ± 0.0055

From the supplement of paper PMC10338343
